From the supplement of paper PMC8728848
Some of the results follow.

Key:
Assay in all cases: glycan array binding signal (z-score within array); higher = stronger binding
Conditions in all cases: glycan notation: IUPAC condensed, linker removed
[1] = biological target: Fuc(a1-2)Gal
Method in brief: (§1)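 Glycan array data came from 3228 arrays in the Consortium for Functional Glycomics database, and only arrays with an available protein sequence were kept. Glycan names were put into IUPAC-condensed notation, and columns mapping to the same glycan were averaged. The binding signal is a within-array Z-score, averaged across arrays of one protein sequence run at different concentrations or buffers and across linkers. A negative Z-score can be read as non-binding.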

[2] = biological target: Fuc(a1-2)Gal(b1-3)GalNAc
Method in brief: as §1

[3] = biological target: Fuc(a1-2)Gal(b1-3)GalNAc(a1-3)[Fuc(a1-2)]Gal(b1-4)Glc
Method in brief: as §1

[4] = biological target: Fuc(a1-2)Gal(b1-3)GalNAc(a1-3)[Fuc(a1-2)]Gal(b1-4)GlcNAc
Method in brief: as §1

[5] = biological target: Fuc(a1-2)Gal(b1-3)GalNAc(b1-3)Gal
Method in brief: as §1

[6] = biological target: Fuc(a1-2)Gal(b1-3)GalNAc(b1-3)Gal(a1-4)Gal(b1-4)Glc
Method in brief: as §1

[7] = biological target: Fuc(a1-2)Gal(b1-3)GalNAc(b1-4)[Neu5Ac(a2-3)]Gal(b1-4)Glc
Method in brief: as §1

[8] = biological target: Fuc(a1-2)Gal(b1-3)GlcNAc
Method in brief: as §1

[9] = biological target: Fuc(a1-2)Gal(b1-3)GlcNAc(b1-2)Man(a1-3)[Fuc(a1-2)Gal(b1-3)GlcNAc(b1-2)Man(a1-6)]Man(b1-4)GlcNAc(b1-4)GlcNAc
Method in brief: as §1

[10] = biological target: Fuc(a1-2)Gal(b1-3)GlcNAc(b1-2)Man(a1-3)[Fuc(a1-2)Gal(b1-3)GlcNAc(b1-2)Man(a1-6)]Man(b1-4)GlcNAc(b1-4)[Fuc(a1-6)]GlcNAc
Method in brief: as §1

[11] = biological target: Fuc(a1-2)Gal(b1-3)GlcNAc(b1-3)Gal(b1-4)Glc
Method in brief: as §1

[12] = biological target: Fuc(a1-2)Gal(b1-3)GlcNAc(b1-3)GalNAc
Method in brief: as §1

[13] = biological target: Fuc(a1-2)Gal(b1-3)GlcNAc(b1-3)[Fuc(a1-2)Gal(b1-3)GlcNAc(b1-6)]GalNAc
Method in brief: as §1

[14] = biological target: Fuc(a1-2)Gal(b1-3)GlcNAc(b1-3)[Gal(b1-4)GlcNAc(b1-6)]Gal(b1-4)Glc
Method in brief: as §1

[15] = biological target: Fuc(a1-2)Gal(b1-3)GlcNAc(b1-3)[Neu5Ac(a2-6)Gal(b1-4)GlcNAc(b1-6)]Gal(b1-4)Glc
Method in brief: as §1

[16] = biological target: Fuc(a1-2)Gal(b1-3)GlcNAc6S
Method in brief: as §1

[17] = biological target: Fuc(a1-2)Gal(b1-3)[Fuc(a1-4)]GlcNAc
Method in brief: as §1

[18] = biological target: Fuc(a1-2)Gal(b1-3)[Fuc(a1-4)]GlcNAc(b1-2)Man(a1-3)[Fuc(a1-2)Gal(b1-3)[Fuc(a1-4)]GlcNAc(b1-2)Man(a1-3)]Man(b1-4)GlcNAc(b1-4)GlcNAc
Method in brief: as §1

[19] = biological target: Fuc(a1-2)Gal(b1-3)[Fuc(a1-4)]GlcNAc(b1-2)Man(a1-3)[Fuc(a1-2)Gal(b1-3)[Fuc(a1-4)]GlcNAc(b1-2)Man(a1-6)]Man(b1-4)GlcNAc(b1-4)[Fuc(a1-6)]GlcNAc(b1-4)[Fuc(a1-6)]GlcNAc
Method in brief: as §1

[20] = biological target: Fuc(a1-2)Gal(b1-3)[Fuc(a1-4)]GlcNAc(b1-3)[Fuc(a1-3)[Gal(b1-4)]GlcNAc(b1-6)]Gal(b1-4)Glc
Method in brief: as §1

[21] = biological target: Fuc(a1-2)Gal(b1-3)[Fuc(a1-4)]GlcNAc(b1-3)[Gal(b1-4)GlcNAc(b1-6)]Gal(b1-4)Glc
Method in brief: as §1

[22] = biological target: Fuc(a1-2)Gal(b1-4)Glc
Method in brief: as §1

[23] = biological target: Fuc(a1-2)Gal(b1-4)Glc6S
Method in brief: as §1

[24] = biological target: Fuc(a1-2)Gal(b1-4)GlcNAc
Method in brief: as §1

[25] = biological target: Fuc(a1-2)Gal(b1-4)GlcNAc(b1-2)Man
Method in brief: as §1

[26] = biological target: Fuc(a1-2)Gal(b1-4)GlcNAc(b1-2)Man(a1-3)[Fuc(a1-2)Gal(b1-4)GlcNAc(b1-2)Man(a1-6)]Man(b1-4)GlcNAc(b1-4)GlcNAc
Method in brief: as §1

[27] = biological target: Fuc(a1-2)Gal(b1-4)GlcNAc(b1-2)Man(a1-3)[Fuc(a1-2)Gal(b1-4)GlcNAc(b1-2)Man(a1-6)]Man(b1-4)GlcNAc(b1-4)[Fuc(a1-6)]GlcNAc
Method in brief: as §1

[28] = biological target: Fuc(a1-2)Gal(b1-4)GlcNAc(b1-2)[Fuc(a1-2)Gal(b1-4)GlcNAc(b1-4)]Man(a1-3)[Fuc(a1-2)Gal(b1-4)GlcNAc(b1-2)Man(a1-6)]Man(b1-4)GlcNAc(b1-4)GlcNAc
Method in brief: as §1

[29] = biological target: Fuc(a1-2)Gal(b1-4)GlcNAc(b1-3)Gal(b1-4)GlcNAc
Method in brief: as §1

[30] = biological target: Fuc(a1-2)Gal(b1-4)GlcNAc(b1-3)Gal(b1-4)GlcNAc(b1-2)Man(a1-3)[Fuc(a1-2)Gal(b1-4)GlcNAc(b1-3)Gal(b1-4)GlcNAc(b1-2)Man(a1-6)]Man(b1-4)GlcNAc(b1-4)GlcNAc
Method in brief: as §1

B1: PX15618B-bfa-464-25-464 (Bacteroides fragilis) (protein)
chain: DQEPPLYVNENDIFTSPTRIEATLNGLYAAIKNTGTKSLMGGKSYLVFDNRGDDVINISNNLVTLFNTYNMNVGITDAENADTWTYAYLAINKVNTFLQSLEGAREVAGENYDRYVQEAKFVRALAYYYLNNLYPTPYSVNPDAKSVPLRLTAEAGTENNNMPRSTVKQIYEHILSDLENISALDTEVNTYTGVTHATQAAANMLKMRVYMAMNEWDKAITAGELVTGYSLPEDVTLIYKAPYFSQESIFSLPMADTNIPNTQQSLAEYYYDGKIMLIDTKSGIMSKPDYSLATDKRIIAFKGEKDLLMKFTDAKTKLQWVPIFRYAETLLDLAECYANKAGGEATAKSLLKQVRGRSVDAATDPLNIDNLSGDALKEAIYNEKRLEFIGEGIRGIDIMRRGEHFIKVGENETINVGPSDEKYTWPIPQVELLLNKDINK
glycan array binding signal (z-score) [1]: -0.574 | glycan array binding signal (z-score) [2]: -0.355 | glycan array binding signal (z-score) [3]: -0.051 | glycan array binding signal (z-score) [4]: -0.094 | glycan array binding signal (z-score) [5]: -0.054 | glycan array binding signal (z-score) [6]: -0.132 | glycan array binding signal (z-score) [7]: 0.122 | glycan array binding signal (z-score) [8]: 0.317 | glycan array binding signal (z-score) [9]: 0.594 | glycan array binding signal (z-score) [10]: 0.441 | glycan array binding signal (z-score) [11]: -0.162 | glycan array binding signal (z-score) [12]: 0.109 | glycan array binding signal (z-score) [13]: 1.41 | glycan array binding signal (z-score) [14]: -0.172 | glycan array binding signal (z-score) [15]: -0.243 | glycan array binding signal (z-score) [16]: -0.214 | glycan array binding signal (z-score) [17]: -0.705 | glycan array binding signal (z-score) [18]: 0.233 | glycan array binding signal (z-score) [19]: -0.542 | glycan array binding signal (z-score) [20]: -0.516 | glycan array binding signal (z-score) [21]: -0.37 | glycan array binding signal (z-score) [22]: 0.052 | glycan array binding signal (z-score) [23]: 0.232 | glycan array binding signal (z-score) [24]: -0.121 | glycan array binding signal (z-score) [25]: -0.489 | glycan array binding signal (z-score) [26]: 8.2 | glycan array binding signal (z-score) [27]: -0.037 | glycan array binding signal (z-score) [28]: 0.128 | glycan array binding signal (z-score) [29]: -0.638 | glycan array binding signal (z-score) [30]: 0.162
